Measurements: paper PMC12136788
Changes are numbered by the printed parent chain. Some of the results follow.

B1: 20771871_20771991_4555_CDS_ENSMUSG00000036591_ENSMUST00000173194|mouse|control|control (ssRNA)
RNA: GGGAGUUCUACAGUCCGACGAUCGAACACACUGUCCAGCUCAUCCUCAGAGCUGCUGGGCUGGGCUUUCUCUUUCGGCUUUUUCCUCUUGCGACUGGCAGCUGCGAAGAUGGAGGAUACAAGCAGUUCCCUGCUAUACUGAUCCAACAGAGGAUUGAGCAUCA
B2: 58348954_58349233_811_CDS_ENSMUSG00000027810_ENSMUST00000029387|mouse|control|control (ssRNA)
RNA: GGGAGUUCUACAGUCCGACGAUCUGCCUGAGGUCCGGCAAAGUUGGGAUACUGAUACAGUCGAACAAAUGAGGGGGCACCUUUACUUCCUGGGACAUAAACUGCCACCUUAUAAGGUUGGGUUCCAGGUGAUAAAUUAAAGUCCAACAGAGGAUUGAGCAUCA
B3: chr14:65392728:65392729:+_ENSG00000258289_ENST00000359118|hu_hu|motif|central (ssRNA)
RNA: GGGAGUUCUACAGUCCGACGAUCGUAUCUUCGGCUUUGCCGCAUAACAGACACAGCAUGGUAUACUCGAUCAUAGGUAACGGUUUCUUCUCCAUCUUCUUCUUUCAAGGAUUUGUUUGUGAUCAGCAUAAAAUCCCGCUUACUCAACAGAGGAUUGAGCAUCA
B4: chr6:106728040:106728041:+_ENSMUSG00000013736_ENSMUST00000057578|mus_hu|FALSE|FALSE (ssRNA)
RNA: GGGAGUUCUACAGUCCGACGAUCAGGAGCCACAUCAAGAUCAUAGAUAAGGUGAAUCAAAUGAUUUACAUGGUUACCAACAAGAAUUUUUUUCAGUUCCACCCAAAUCCUUUCUCCUGAUAUUCCAGCCAAGCCUUUUGCAUUCAACAGAGGAUUGAGCAUCA
B5: chr3:184044699:184044700:+_ENSG00000114867_ENST00000411531|hu_mus|FALSE|FALSE (ssRNA)
RNA: GGGAGUUCUACAGUCCGACGAUCACGUCUGUUAUCUGUGUUCUCUGCGGGUAAUGUUUGUUGAAGAGCAGAAAAGCGAUUCAAGGUAGCUGGACGAGUAGCUUCCGAUGCUGUGUCUGAGGGCUUGGCUCCUGAGCCCCCACUCAACAGAGGAUUGAGCAUCA
B6: chr5:118832277:118832278:+_ENSG00000133835_ENST00000256216|hu_mus|motif|central (ssRNA)
RNA: GGGAGUUCUACAGUCCGACGAUCUGACGUGGCUGCAGGUGCCGCGUGACUGGUACGGUUUGGUGAGAUUCCUUCUGAAUCGGCCUUAUGUAAAACUUCGACUAUACCACCUGUUGAUUCUUGAAUGGUCUGCGGCUUGCUGGCCAACAGAGGAUUGAGCAUCA
B7: chr4:144460044:144460045:+_ENSG00000153147_ENST00000283131|hu_mus|hu_hu_hu_mus_False|88_88 (ssRNA)
RNA: GGGAGUUCUACAGUCCGACGAUCACGGUCCAUAGCCUGAAGAUCAACUUGGGGAUUCCAAUCUGAGUCAUAUAAAAUGACUACAUCAGCAGUUGCAAGAUUGAUGCCCAGACCACCAGCACGUGUGCUUAGCAUAAAUACAAACAACAGAGGAUUGAGCAUCA
B8: chr6:41757443:41757444:+_ENSG00000214736_ENST00000398881|hu_mus|hu_hu_hu_mus_False|28_88 (ssRNA)
RNA: GGGAGUUCUACAGUCCGACGAUCGAACCGUGCAGAGGCAACAUCUCGGAAUUCUGCGGGGGAUGGGGGGGCAGUGGGGGGGGGUUCAGGCAAGGAGAGGGAGUCAACCCAUCUGAACACUCAGGUAGGAUCUUGUGGUCACAGCAACAGAGGAUUGAGCAUCA
B9: chr3:179287964:179287965:+_ENSG00000136518_ENST00000429709|hu_hu|hu_hu_hu_mus_True|58_58 (ssRNA)
RNA: GGGAGUUCUACAGUCCGACGAUCCUUGAGUGGUGAGAUGGCCUCCAUGUUCUCCCUGGGCACGCGGAGGGCAUUGGUAUCUAUGUAGUAGGUGGGCCCGCCCUGCUUGCCUUUGUCACCAUCAAUCUCCAUCAUUGUACUUCCCAACAGAGGAUUGAGCAUCA
B10: chr4:148551591:148551592:-_ENSMUSG00000063077_ENSMUST00000060537|mus_hu|mus_mus_mus_hu_False|68_108 (ssRNA)
RNA: GGGAGUUCUACAGUCCGACGAUCACCUUACAAAAUUAAAUAUCCCUGUAAAUUAGACAAUAAGCAGCAGGUAACAAAGUCUUUGCUUUGGAAUAUGUGCCAGGAAAAGUCAUCUUGUUUUUAGAUCUCAAGAGACAGUUCACACAACAGAGGAUUGAGCAUCA
B11: chr6:13786967:13786968:-_ENSMUSG00000048216_ENSMUST00000115492|mus_mus|FALSE|FALSE (ssRNA)
RNA: GGGAGUUCUACAGUCCGACGAUCGGAGGAUAAGGAAACAGCCUCAGUCAAGUCUCAUGAUCUAGAUAUAAGAACAAGGAAAAGAUAGAUCCAUACAUUUUACUGAAAAUGUAAUCCACAAAGAGAUCAGAUCCGAUCUGUGGCCAACAGAGGAUUGAGCAUCA
B12: 30996462_30996582_998_CDS_ENSMUSG00000027660_ENSMUST00000118470|mouse|control|control (ssRNA)
RNA: GGGAGUUCUACAGUCCGACGAUCCUGGGAAUAUCGAGCAGAAAAUGCUGCUGGUCCACCCAAAGAGCUCUGACUGCUUAAGUGGAAUUGUGCCAGCGUGUGUUUCAGACUGGGGUUUAAAUUUAAAGUUUCAGGUAGAGAAACCAACAGAGGAUUGAGCAUCA
B13: chr4:148551591:148551592:-_ENSMUSG00000063077_ENSMUST00000060537|mus_hu|mus_mus_mus_hu_False|28_78 (ssRNA)
RNA: B10 RNA with U28G, U60G, U71C, G108A, C113G, G116U
B14: chr7:135612270:135612271:-_ENSG00000105887_ENST00000393085|hu_mus|hu_hu_hu_mus_False|18_18 (ssRNA)
RNA: GGGAGUUCUACAGUCCGACGAUCGUUUUUUUCUGAGAUGUUAAAUAGUACUUCAGUGGAAAACAAAACUUAACCUUUUAUUAAUGCGUGUUGUACCAAAAGCAGACAUUUUAGCUUGCUUCCUUUAAAAAUAUUAACAUUAAGCAACAGAGGAUUGAGCAUCA
B15: 97025942_97026400_1522_CDS_ENSG00000121152_ENST00000240423|human|control|control (ssRNA)
RNA: GGGAGUUCUACAGUCCGACGAUCGUUGAAAUCUGUAGGAAGGGUGGUAGCUCUCCAAUUCUGGUUCUCCAAAGUGGACUUGGUCAGAAUAGUAGCAGCCUUUGUUUUUCUAAAAUAUACAUCAAAGUCAAUAUCAUCUUCAAACAACAGAGGAUUGAGCAUCA
B16: chr7:7679991:7679992:-_ENSG00000106399_ENST00000396682|hu_hu|hu_hu_hu_mus_False|18_38 (ssRNA)
RNA: GGGAGUUCUACAGUCCGACGAUCUGGGAUGAAUCUUUUCCAGCUUCCCCACGAAGCACACGGGCCGGUCGAUAUACUGUGGUAACAUGCUGGCGUUGAUGCGCGACUUGGGGAGCUCCAUCAUGUCCUCCAUGAUUCUGCCGCCAACAGAGGAUUGAGCAUCA
B17: chr18:24050344:24050345:+_ENSMUSG00000024277_ENSMUST00000025127|mus_mus|FALSE|FALSE (ssRNA)
RNA: GGGAGUUCUACAGUCCGACGAUCUGGCCUGUAGGGUACACACCCUCAAGUCCCCCUUUAGUAUGGAUUCCUUAAUGUGAAUUGGAGGACUUGGGUUGAAGCUCUUACAAGGAGGAAGAGGGAAGAGGCAGGAAGCCUCGUGCCCAACAGAGGAUUGAGCAUCA
B18: 56791868_56792582_1945_3pUTR_ENSMUSG00000028431_ENSMUST00000030140|mouse|control|control (ssRNA)
RNA: GGGAGUUCUACAGUCCGACGAUCGAUGAACAAAUCGAACAGGAAUUCCUUCAGAAUUCUUCCAGGGUUCCACAGCCAGAGAAGGUGACUCCCAAAGGUACUUGAGCACCUGGCCAUCAGCCAGCUGUACUGCUAAUGACUUGGCAACAGAGGAUUGAGCAUCA
B19: chr17:62495851:62495852:-_ENSG00000108654_ENST00000581693|hu_hu|motif|central (ssRNA)
RNA: GGGAGUUCUACAGUCCGACGAUCUCACUGUACAUUUACUUUUGUGAAAACACUGCCUGCAUUUUCUAGUACAAAAAAAACCGGAAAAUUGUUUCAGGAAUGUAGAGAAAUAUCCAACUUAAAUAGCGAAAAAGUGCACCAUAACAACAGAGGAUUGAGCAUCA
B20: chr17:65740002:65740003:+_ENSG00000130935_ENST00000581375|hu_hu|hu_hu_hu_mus_False|78_88 (ssRNA)
RNA: GGGAGUUCUACAGUCCGACGAUCAACAAAUCUUUCUUCCCUGGACGCAAGAGUUCACAUAAAAGAGAAAAAAUAUAUAUCCAUCAAGUUAGGUGUGGUGGCCACACCUUUACUCCCAGCACUUUGGGAGGUGGAUCUCUGAGUCAACAGAGGAUUGAGCAUCA
B21: chr15:38777322:38777323:+_ENSG00000171262_ENST00000397609|hu_hu|FALSE|FALSE (ssRNA)
RNA: GGGAGUUCUACAGUCCGACGAUCAGAAAAAAAUGAUUCACAACAACUGCCUACUAAAUACAACUGGAAGUGCCUUUCCCUAUUUUGUAAAAUCGAAUGAAAAACCCACAAAACACAUCCACAGCAAUACAGGUGAGGCAAGGGCAACAGAGGAUUGAGCAUCA
B22: chr7:141443734:141443735:+_ENSG00000106028_ENST00000265304|hu_mus|FALSE|FALSE (ssRNA)
RNA: GGGAGUUCUACAGUCCGACGAUCCCCCUUUUUCACAUACUGAUAUGCCACAUCUCUGAGGCCUGGUCGAAACACUGAUAUUCUGUGCCACGUCGUCUUCUGACUAACGUCACCCAUUUGGUAUACUUCACUAUCCCCUGAUCGCAACAGAGGAUUGAGCAUCA

molecular target: T1, UNK ZnF1-3 (human, UniProt Q9C0B0 31-174); experiment: nsRBNS (natural sequence RNA bind-n-seq); RBNS binding buffer (assumed for nsRBNS): 25 mM Tris pH 7.5, 150 mM KCl, 3 mM MgCl2, 0.01% Triton X-100, 500 ug/ml BSA, 20 U/ml SUPERase-In, 4 C; UNK is unkempt and MSI1 is Musashi-1; names of the RNAs are library labels; protein concentration not given here; high values mean tight binding
T1 sequence: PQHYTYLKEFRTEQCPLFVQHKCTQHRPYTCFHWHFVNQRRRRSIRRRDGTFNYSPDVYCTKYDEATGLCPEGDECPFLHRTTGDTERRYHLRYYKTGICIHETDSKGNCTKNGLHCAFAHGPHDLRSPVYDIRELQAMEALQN

Binder | binding signal [enrichment R]
B1 | 0.636
B2 | 1.25
B3 | 0.625
B4 | 1.25
B5 | 0.839
B6 | 0.673
B7 | 1.25
B8 | 1.07
B9 | 0.646
B10 | 1.07
B11 | 1.28
B12 | 1.28
B13 | 1.26
B14 | 0.777
B15 | 1.17
B16 | 0.754
B17 | 0.912
B18 | 0.472
B19 | 0.9
B20 | 0.848
B21 | 2.04
B22 | 0.702
